# The whole screen tested about 2,200 compounds, of which fewer than 10 were called active. The list shows a part of the results. The source made no clear call on entries shown without one.
# Molecular target: GTPase KRas (Homo sapiens) (UniProt P01116)
# Experiment: Cysteine mutants labelled by reactive fragments (mass read-out) (AID 2202238)
# Set-up: protein at 5 µM with 500 µM competing thiol for 1.5 h
# Conditions: KRAS G12D cysteine mutants, disulfide tethering, MALDI-TOF labeling; stronger effect = higher value; H27C mutant labeling; fragment at 500 µM
# Chain of UniProt P01116 (P01116 whole entry, looked up, the tested form may be a part): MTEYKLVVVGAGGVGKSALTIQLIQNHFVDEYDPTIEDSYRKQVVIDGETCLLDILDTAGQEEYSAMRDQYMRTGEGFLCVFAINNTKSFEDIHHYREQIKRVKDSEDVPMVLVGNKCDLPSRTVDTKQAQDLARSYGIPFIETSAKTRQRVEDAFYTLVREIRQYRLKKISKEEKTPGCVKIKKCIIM
row,Structure (SMILES),percent labeling
1,CN1CC(C(=O)NCCS)c2ccccc2C1=O (stereo not drawn),26%
2,NC(=O)C1CCN(c2ncccc2CNC(=O)CCS)CC1,30.7%
3,O=C(CN1CCN(C(=O)CCS)CC1)Nc1ccccc1,40%
4,COC(=O)c1ccc(CN(C)C(=O)CCS)o1,34%
5,O=C(CN1CCC(C(F)(F)F)CC1)NCCS,40.9%
6,O=C(NCCS)C1=NN(c2ccc(S(=O)(=O)O)cc2)C(=O)C1,15.4%
7,Cc1nc(CN2CCC(CNC(=O)CCS)CC2)cs1,50.5%
8,O=C(CCS)NCC(=O)Nc1ccc(F)cc1,26%
9,Cn1ccc(C(=O)NC2(C(=O)NCCS)CCCCCC2)cc1=O,28.4%
10,O=C(CCS)Nc1cc2n(n1)CCCN(Cc1ccccc1)C2,38.7%
11,COc1ccc(C(=O)Nc2cc(F)ccc2C(=O)NCCS)cc1,24.1%
12,Cc1c(C(=O)NCCS)oc2c1ccc1ccccc12,22.5%
13,C[C@H]1C[C@H](NC(=O)CCS)c2ccsc2S1(=O)=O,50.2%
14,O=C(CCS)N1CCN(Cc2ccncc2)CC1,28.4%
15,O=C(NCCS)c1ncccc1-n1ncc2ccccc21,36.6%
16,CC(C)Cc1cc(C(=O)NCCS)cc(=O)[nH]1,45.5%
17,CN1CCN(C(=O)CCS)c2cc(F)ccc21,28.6%
18,Cc1nc(CC(C)C)c(C(=O)NCCS)s1,41.5%
19,O=C(CCS)NCc1ccncc1C(F)(F)F,19.3%

row,Structure (SMILES),percent labeling
1,O=C(CCS)N1CCC(Cc2nc(-c3ccc(F)cn3)no2)CC1,36.6%
2,O=C(CCS)N1CCc2c([nH]c(=O)[nH]c2=O)C1,41.6%
3,COc1ccc(C(=O)NCCS)c(OC)c1OC,41.9%
4,CC(=O)N(C)Cc1ccccc1NC(=O)CCS,28.3%
5,Cc1nn(Cc2ccccc2)c(C)c1NC(=O)CCS,50.2%
6,CN(C)c1cnc(CNC(=O)CCS)cn1,30%
7,O=C(CCS)N1CCC(C(O)c2ccc(F)cc2)CC1 (stereo not drawn),48.3%
8,O=C(NCCS)c1ccccc1OC1CCCC1,24.1%
9,Cc1nn(C2CCN(C(=O)CCS)CC2)c(=O)[nH]1,35.1%
10,O=C(NCCS)c1ccc(NC(=O)C2CC2)s1,48.2%
11,O=C(NCCS)c1cc2ccc(Br)cc2c(=O)o1,17.2%
12,CC(C)C(NC(=O)CCS)c1nnc2n1CCC2 (stereo not drawn),31.3%
13,CN(C)CCOc1cccc(NC(=O)CCS)c1,55.3%
14,O=C(CCS)Nc1cnn(COc2ccc(Cl)cc2)c1,40.1%
15,O=C(CCS)Nc1ccc(NC(=O)c2ccco2)c(Cl)c1,37.3%
16,O=C(NCCS)C(c1cccc(F)c1)N1CCOCC1 (stereo not drawn),39.1%
17,CCOc1cccnc1N1CCN(C(=O)CCS)CC1,45.7%
18,CC(NC(=O)C12CC3CC(CC(C3)C1)C2)C(=O)NCCS (stereo not drawn),31.9%
19,O=C(CCS)N1CCN(c2nn3cc(-c4ccc(F)cc4)nc3s2)CC1,7.9%
